One molecule from article PMC9804489, “Phase 1/1b Studies of UCB0599, an Oral Inhibitor of α‐Synuclein Misfolding, Including a Randomized Study in Parkinson's Disease” (Movement Disorders, 2022) can be followed below.

Read-outs that look alike come from different tables or passages of the source. Marks after values point to notes of the source that are not given here.

A short description of data set [1]: UP0077 phase 1b study: plasma PK of UCB0599 and its metabolites in participants with PD. The class given is in vivo, human. Particulars: for AUC / Cmax / Tmax / half-life: human, plasma, oral; for AUC: read-out: AUC, geometric mean (CV%); for Cmax: read-out: C max, geometric mean (CV%); for Tmax: read-out: t max, median (range); for half-life: read-out: Half‐life, geometric mean (CV%) (converted). The procedure:
Statistical evaluations for all three studies were performed using SAS version 9.4 (SAS, Cary, NC, USA), and PK data were analyzed using Phoenix WinNonlin software (Certara, Princeton, NJ, USA). Continuous variables were summarized with number of participants, mean, standard deviation, median, minimum and maximum, and confidence intervals (CI) for the mean. Categorical variables were summarized with frequency counts and percentages.

The nature of data set [2]: UCB0599 fraction unbound measured ex-vivo in plasma. It counts as in vitro ADME. Particulars: human, plasma, oral, read-out: Fraction unbound, geometric mean (CV%). The source says:
A linear, time‐independent, PK profile was observed, and the PK of multiple doses of UCB0599 were predictable from single‐dose exposures.

Data set [3] is described as follows: UP0078 phase 1 food/ITZ study: safety and tolerability in healthy participants. Particulars: UP0078, UCB0599 N=22.
Setting [4] is: UCB0599 180 mg/day, day 28, n=7.
Setting [5] is: UCB0599 360 mg/day, day 28, n=13.

Usually AUC stands for the area under the concentration-time curve, a measure of exposure. In general, half-life refers to the time needed for the level to fall by half in the phase considered. Broadly, the fraction unbound is the share of the substance not bound to proteins or other matrix. In the case of `CCCC[C@H](Cc1c[nH]c2ccccc12)NC(=O)c1cnc(N2CCN(C)CC2)s1` [UCB0599], the figures for the “t max, median (range)” value in data set [1] (setting [4]) and in data set [1] (setting [5]) were 2.0 (1.5–4.0) h and 2.0 (1.0–6.12) ^a h, respectively. Also, the AUC in data set [1] (180 mg/day, UCB0599 180 mg/day (90 mg twice daily), day 1, AUC 0 to 12 hours, n=7) came out at 2230 ng·h/mL; in data set [1] (180 mg/day, UCB0599 180 mg/day, day 28, AUC for the dosing interval at steady state, n=7), 3740 ng·h/mL; in data set [1] (360 mg/day, UCB0599 360 mg/day (180 mg twice daily), day 1, AUC 0 to 12 hours, n=14) it was 3390 ng·h/mL; in data set [1] (360 mg/day, UCB0599 360 mg/day, day 28, AUC for the dosing interval at steady state, n=13) it was 7650 ng·h/mL. Further, the Cmax in data set [1] (180 mg/day, UCB0599 180 mg/day, day 1, n=7) came to 417 ng/mL; in data set [1] (180 mg/day, UCB0599 180 mg/day, day 28, n=7), 671 ng/mL; in data set [1] (360 mg/day, UCB0599 360 mg/day, day 1, n=14) it was 662 ng/mL; in data set [1] (360 mg/day, UCB0599 360 mg/day, day 28, n=13), 1270 ng/mL. For the same molecule, the Tmax in data set [1] (UCB0599 180 mg/day, day 1, n=7) turned out to be 2 h; in data set [1] (UCB0599 360 mg/day, day 1, n=14), 2 h. The half-life in data set [1] (setting [4]) is 644 min; in data set [1] (setting [5]), 785 min. The fraction unbound at 1 day in data set [2] (UP0077, UCB0599 180 mg/day, day 1, n=7) amounted to 0.011; in data set [2] (UP0077, UCB0599 360 mg/day, day 1, n=13), 0.01. In addition, the fraction unbound at 28 day in data set [2] (UP0077, UCB0599 180 mg/day, day 28, n=7) was found to be 0.012; in data set [2] (UP0077, UCB0599 360 mg/day, day 28, n=10), 0.01. The “Discontinuations due to TEAEs” value in data set [3] is 0 n (%) […]. The “Serious TEAEs” value in data set [3] is 0 n (%) […]. For the same molecule, the “Severe TEAEs” value in data set [3] was 0 n (%) […].
